Assay results reported in PubChem BioAssay AID588342 (National Center for Advancing Translational Sciences (NCATS), 2011).
Screen size: about 360,000 compounds; about 25,000 (6.9%) were called active. The shares of active, inactive and inconclusive entries below differ from those in the screen. Calls come from the whole dose curve; as a rule, active = well fitted inhibition curve with a large enough effect; inconclusive = small, poorly fitted or top-dose-only effect; inactive = flat fitted curve, though single readings scatter. Potencies of inconclusive entries are doubtful fits and often do not repeat.

biological target: Luciferin 4-monooxygenase (Photinus pyralis) (UniProt P08659); experiment: qHTS profiling assay for firefly luciferase inhibitor/activator using purifed enzyme and Km concentrations of substrates (counterscreen for miR-21 project); details: purified FLuc, luminescence inhibition; series mostly up to 57.5 µM; note: nearly all actives have a fitted effect of over 55% in size
Chain of UniProt P08659 (P08659 whole entry, looked up): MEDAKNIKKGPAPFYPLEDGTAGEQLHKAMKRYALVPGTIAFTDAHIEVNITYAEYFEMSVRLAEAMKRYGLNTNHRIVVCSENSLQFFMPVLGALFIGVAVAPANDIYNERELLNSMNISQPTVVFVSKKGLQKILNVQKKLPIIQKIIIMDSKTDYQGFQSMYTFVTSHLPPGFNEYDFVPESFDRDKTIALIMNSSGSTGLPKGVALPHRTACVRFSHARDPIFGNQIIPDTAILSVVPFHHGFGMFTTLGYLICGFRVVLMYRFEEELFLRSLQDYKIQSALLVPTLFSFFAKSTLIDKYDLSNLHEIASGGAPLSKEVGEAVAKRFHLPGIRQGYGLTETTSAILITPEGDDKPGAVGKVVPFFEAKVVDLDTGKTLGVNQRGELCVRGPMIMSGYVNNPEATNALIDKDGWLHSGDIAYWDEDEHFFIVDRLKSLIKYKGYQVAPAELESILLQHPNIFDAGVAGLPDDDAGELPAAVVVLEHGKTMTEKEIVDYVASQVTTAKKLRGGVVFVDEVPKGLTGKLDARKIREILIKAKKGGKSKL
Procedure, shortened: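 Purified P. pyralis luciferase, 10 nM final, with Km-level 10 uM D-luciferin and 10 uM ATP in 50 mM Tris acetate pH 7.5, 10 mM Mg acetate, 0.01% Tween-20, 0.05% BSA; 6-point qHTS titration about 60 µM downward; luminescence read.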
Potency is the fitted concentration of half-maximal effect; tags give direction and shape of the fitted curve.

Structure (SMILES) | Potency
O=C(c1cccc(S(=O)(=O)N2CCOCC2)c1)N1CCN(C/C=C/c2ccccc2)CC1 | inactive
CC(C)CCNc1ncnc2c1cnn2-c1cccc(Cl)c1 | active: 16.9 µM
CCn1c(C)c(Br)c(=O)c(C(=O)OC)c1-c1ccc(Cl)cc1 | inactive
Nn1c(SCC(=O)Nc2ccc(F)cc2F)nnc1-c1cccnc1 | inconclusive: 15.1 µM [inhibitor, partial curve]
FC(F)C(F)(F)c1cc(-c2ccc(Cl)cc2)n[nH]1 | inconclusive: 23.9 µM [inhibitor, partial curve, poor fit]
Cc1ccc(/C=N/N2CCOCC2)s1 | inconclusive: 26.9 µM [inhibitor, single point]
CC(C)c1ccc(S(=O)(=O)Nc2ccc(O)c(Sc3nc4ccccc4s3)c2)cc1 | inconclusive: 16.9 µM [inhibitor, partial curve]
CN1CCc2c(sc3c2C(=O)NC(c2ccc(-c4cccc(Cl)c4)o2)N3)C1 (configuration not stated) | inconclusive: 26.9 µM [inhibitor, partial curve, poor fit]
CC(=O)c1ccc(NC(=O)CSc2nccn2Cc2ccco2)cc1 | active: 16.9 µM
N=C1C(c2nc3ccccc3[nH]2)=C(O)CN1C1CCCCC1 | inconclusive: 2.39 µM [inhibitor, full curve]
O=C(c1ccc(Cn2c(=S)[nH]c3ccc(N4CCOCC4)cc3c2=O)cc1)N1CCC(N2CCCCC2)CC1 | inconclusive: 42.6 µM [inhibitor, partial curve, poor fit]
CCCOC(=O)c1ccc(NC(=O)c2ccoc2C)cc1 | active: 9.53 µM
CN(C)c1ccc(C2CNC(c3ccc(Cl)c([N+](=O)[O-])c3)c3[nH]c4ccccc4c32)cc1 (configuration not stated) | inconclusive: 30.1 µM [inhibitor, partial curve, poor fit]
CSc1ccc(CN2CCC(CO)(CCOc3ccccc3)CC2)cc1 | inactive
COc1ccccc1C(=O)Nc1nc2ccccc2[nH]1 | active: 0.019 µM
Cc1ccc(-c2nn(-c3ccc(F)cc3)cc2C(=O)NC2CCC(O)CC2)cc1 (configuration not stated) | inconclusive: 12 µM [inhibitor, partial curve, poor fit]
COc1ccc(C(=O)Nc2ccccc2C(=O)O)cc1NC(=O)C(c1ccccc1)c1ccccc1 | active: 13.5 µM
COc1ccc2nc(NC(=O)CSc3nnc(C)s3)sc2c1 | inconclusive: 1.07 µM [inhibitor, partial curve, poor fit]
O=C(CSc1nnc(-c2cccs2)o1)Oc1ccc(Cl)cc1 | inactive
Cc1cc(NC(=O)c2cccc(S(=O)(=O)Nc3cccc(C(=O)O)c3)c2)no1 | inactive
CC(=O)c1cccc(NC(=S)NNC(=O)c2ccc(C)c([N+](=O)[O-])c2)c1 | inconclusive: 21.3 µM [inhibitor, single point]
Cc1ccc(C(=O)NC2CCCCNC2=O)cc1 (configuration not stated) | inconclusive: 19 µM [inhibitor, partial curve]
CC(=O)c1cccc(NC(=O)c2noc3c2CC(C)CC3)c1 (configuration not stated) | inconclusive: 10.7 µM [inhibitor, partial curve]
COc1ccccc1C(=O)Nc1nnc(S(=O)(=O)N(C)Cc2ccccc2)s1 | inconclusive: 21.3 µM [inhibitor, partial curve, poor fit]

Structure (SMILES) | Potency
O=C(O)c1cc(-c2cccc([N+](=O)[O-])c2)nc2ccccc12 | active: 19 µM
Cc1cc(N2CCCCC2)nc2ccccc12 | inconclusive: 30.1 µM [inhibitor, single point]
CC(=O)Nc1nccc(-c2cc(-c3ccccc3)no2)n1 | inconclusive: 10.7 µM [inhibitor, partial curve, poor fit]
N=c1oc2ccccc2cc1C(=O)NCc1ccccc1 | active: 9.53 µM
O=C1CCCCN1CCC(=O)N1CCCC(N2CCN(c3cccc(Cl)c3)CC2)C1 (configuration not stated) | inconclusive: 26.9 µM [inhibitor, partial curve, poor fit]
COc1ccc(O)c(/C=N/N2CCOCC2)c1 | inconclusive: 21.3 µM [inhibitor, single point]
OC1CCN(c2c3c(nc4cc(-c5ccc(F)cc5)nn24)CCC3)CC1 | inconclusive: 6.01 µM [inhibitor, partial curve, poor fit]
Cc1ccc(/C=C/C2=Cc3c(sc(NC(=O)CSc4n[nH]c(N)n4)c3C#N)C(C)(C)C2)o1 | inconclusive: 12 µM [inhibitor, partial curve]
CCCC(=O)Nc1ccc(NC(=O)c2sc3ccccc3c2Cl)cc1 | inactive
O=c1[nH]c2ccccc2n1CCCOc1ccccc1 | inconclusive: 26.9 µM [inhibitor, partial curve, poor fit]
O=[N+]([O-])c1nn(-c2ccc3c(c2)OCCO3)n(O)c1=NCc1ccc(F)cc1 | active: 4.26 µM
CSC1=N/C(=C\C=C\c2cccs2)C(=O)S1 | active: 16.9 µM
O=C(Nc1ccc(N2CCOCC2)nc1)c1c(F)cccc1F | inconclusive: 30.1 µM [inhibitor, single point]
CCc1ccc2nc(N(Cc3cccnc3)C(=O)c3cccs3)sc2c1 | inconclusive: 23.9 µM [inhibitor, partial curve]
O=C(OCc1c(F)cccc1Cl)c1cnc2ccccc2n1 | inconclusive: 23.9 µM [inhibitor, partial curve]
CCOC(=O)c1ccc(NC(=O)c2cnc(N3CCCC3)nc2C)cc1 | inconclusive: 37.9 µM [inhibitor, partial curve, poor fit]
CC1CCN(CC(O)COc2ccc(-c3ccccc3)cc2)CC1 (configuration not stated) | inactive
COc1ccccc1C(=O)NCC(=O)Nc1cccnc1 | inactive
Fc1ccc(-c2ccnn2-c2ccccc2)cc1 | inconclusive: 19 µM [inhibitor, partial curve]
CC1CCCN(c2ncnc3c2nc2n3CCCCC2)C1 (configuration not stated) | inconclusive: 15.1 µM [inhibitor, partial curve]
COc1ccc(OCc2cc(C(=O)N3CCCC3)no2)c2ccccc12 | active: 9.53 µM
Brc1ccc2[nH]c3c(N4CCc5ccccc5C4)ncnc3c2c1 | inactive
O=c1cc(-c2ccccc2)nc2nc(COc3ccccc3)[nH]n12 | inconclusive: 21.3 µM [inhibitor, single point]
O=C(Cn1cnc2c(nnn2Cc2ccc(F)cc2)c1=O)NC1CCCC1 | inconclusive: 33.8 µM [inhibitor, single point]

Structure (SMILES) | Potency
COc1ccc(C/C(C)=N/NC(=S)Nc2ccc(C(C)C)cc2)cc1 | inconclusive: 26.9 µM [inhibitor, single point]
CC1=C(C)CC(C(=O)NNC(=O)c2ccccc2O)C(C(=O)O)C1 (configuration not stated) | inconclusive: 30.1 µM [inhibitor, single point]
O=C(Nc1cccnc1Cl)c1ccc(Cl)cc1 | inconclusive: 23.9 µM [inhibitor, single point]
N#C/C(=C\Nc1ccc2c(c1)OCCO2)c1nc(-c2ccccc2)cs1 | inactive
COc1ccccc1OC(C)C(=O)O (configuration not stated) | inactive
CC(C)(C)OC(=O)N1CCC(c2c(C(=O)Nc3ccc4c(c3)OCO4)cnn2-c2ccc(F)cc2F)CC1 | inconclusive: 21.3 µM [inhibitor, partial curve, poor fit]
O=C(N/N=C/C(Br)=C/c1ccccc1)c1cc(-c2ccco2)[nH]n1 | inconclusive: 15.1 µM [inhibitor, partial curve, poor fit]
CC(Oc1ccc(Cl)cc1Cl)c1nc(-c2ccc(NC(=O)c3ccccn3)cc2)no1 (configuration not stated) | active: 9.53 µM
Cc1[nH]c2ccccc2c1C(=O)CSC(=S)N1CCCCC1 | active: 9.53 µM
O=C(Nc1ccc(NC(=O)C2CC2)nc1)c1ccco1 | inconclusive: 15.1 µM [inhibitor, partial curve, poor fit]
O=C(Nc1ccc(Cl)cn1)Nc1cccs1 | inconclusive: 9.53 µM [inhibitor, partial curve]
CS(=O)(=O)c1nc(-c2ccc(Br)cc2)n[nH]1 | inconclusive: 16.9 µM [inhibitor, partial curve]
COc1ccc(OCc2nn3c(Cn4cnc5ccccc54)nnc3s2)cc1 | inconclusive: 37.9 µM [inhibitor, partial curve, poor fit]
C/C(=N\NC(=O)c1cccc(F)c1)c1cccc(NC(=O)c2ccc(F)cc2)c1 | inconclusive: 2.39 µM [inhibitor, partial curve]
Cc1cc(N2CCOCC2)nc(SCC(=O)c2ccccc2)n1 | inconclusive: 26.9 µM [inhibitor, partial curve, poor fit]
CC(C)(C)c1ccc(-c2nc(O)c(CC(=O)O)s2)cc1 | active: 1.9 µM
O=C(NCC1CCCO1)c1ccc(-c2ccccc2Cl)o1 (configuration not stated) | active: 16.9 µM
CN1CCc2c(sc3c2C(=O)NC(c2cccs2)N3)C1 (configuration not stated) | inconclusive: 26.9 µM [inhibitor, single point]
Cc1ccc(C)n1-c1ccc(NC(=O)c2ccccc2)cc1 | active: 8.49 µM
c1coc(-c2nc3ccccn3c2Nc2ccc3c(c2)OCCO3)c1 | inconclusive: 19 µM [inhibitor, partial curve]
O=C(CN1C(=O)c2ccccc2S1(=O)=O)N1CCOCC1 | inactive
Cc1ccc(NC(=O)CSCc2nc3c(nnn3Cc3ccc(F)cc3)c(=O)[nH]2)c(C)c1 | inactive
COc1ccc(OC)c(NC(=O)CCn2c(=S)[nH]c3ccccc3c2=O)c1 | inactive
COC(=O)Cc1csc(Nc2ccc(Cl)cc2)n1 | inconclusive: 23.9 µM [inhibitor, partial curve]
